Binding data for two molecules are collected here from article PMC11602027.

One assay has as its target T1, GST-Rgf1 (S. pombe) (UniProt Q9Y7U6).
T1 sequence: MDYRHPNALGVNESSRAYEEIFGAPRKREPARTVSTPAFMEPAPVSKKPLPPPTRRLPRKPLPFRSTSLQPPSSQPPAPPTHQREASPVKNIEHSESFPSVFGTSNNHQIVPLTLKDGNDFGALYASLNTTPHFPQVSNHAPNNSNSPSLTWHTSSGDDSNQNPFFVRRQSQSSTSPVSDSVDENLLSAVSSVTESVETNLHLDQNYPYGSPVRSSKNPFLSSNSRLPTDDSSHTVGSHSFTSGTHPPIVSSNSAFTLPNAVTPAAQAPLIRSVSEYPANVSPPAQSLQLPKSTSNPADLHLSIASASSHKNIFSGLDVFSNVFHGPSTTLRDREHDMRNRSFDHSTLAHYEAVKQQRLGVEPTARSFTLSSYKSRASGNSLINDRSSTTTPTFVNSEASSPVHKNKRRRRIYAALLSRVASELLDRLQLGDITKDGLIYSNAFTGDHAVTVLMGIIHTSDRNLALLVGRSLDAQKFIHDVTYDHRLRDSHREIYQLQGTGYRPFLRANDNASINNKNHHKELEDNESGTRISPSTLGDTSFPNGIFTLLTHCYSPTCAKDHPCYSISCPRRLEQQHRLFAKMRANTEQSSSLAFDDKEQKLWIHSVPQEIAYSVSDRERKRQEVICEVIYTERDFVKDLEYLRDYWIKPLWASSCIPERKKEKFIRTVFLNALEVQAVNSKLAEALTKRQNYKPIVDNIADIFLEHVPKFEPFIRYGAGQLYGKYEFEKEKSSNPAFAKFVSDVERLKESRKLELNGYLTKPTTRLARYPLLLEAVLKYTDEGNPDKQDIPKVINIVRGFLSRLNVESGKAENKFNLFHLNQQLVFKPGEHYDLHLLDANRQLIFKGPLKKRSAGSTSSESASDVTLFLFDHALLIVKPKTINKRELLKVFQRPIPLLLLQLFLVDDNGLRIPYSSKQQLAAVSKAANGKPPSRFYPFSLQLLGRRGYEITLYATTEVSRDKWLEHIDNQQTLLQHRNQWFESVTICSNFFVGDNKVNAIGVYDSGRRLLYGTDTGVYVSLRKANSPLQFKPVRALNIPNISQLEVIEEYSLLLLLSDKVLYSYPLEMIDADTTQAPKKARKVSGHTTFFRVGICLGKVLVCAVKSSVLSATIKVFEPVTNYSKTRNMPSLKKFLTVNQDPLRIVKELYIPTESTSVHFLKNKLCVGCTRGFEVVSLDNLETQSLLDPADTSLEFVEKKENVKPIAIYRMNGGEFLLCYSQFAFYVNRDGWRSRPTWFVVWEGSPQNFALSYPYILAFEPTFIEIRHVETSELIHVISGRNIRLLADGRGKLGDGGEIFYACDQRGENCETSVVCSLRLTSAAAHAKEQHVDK
The experiment in a line: pull-down; 2 to 10 μg GST-tagged protein purified from E. coli and coupled to GS beads, incubated 2 h with S. pombe cell extracts (2 to 3 mg total protein; 50 mM Tris-HCl pH 7.5, 20 mM NaCl, 0.5% NP-40, 10% glycerol); blotted with anti-HA or anti-GFP; GS beads alone as control; only the target purified.

For a further assay, the target named is T2, pGBK-rgf1 (S. pombe) (UniProt Q9Y7U6).
T2 sequence: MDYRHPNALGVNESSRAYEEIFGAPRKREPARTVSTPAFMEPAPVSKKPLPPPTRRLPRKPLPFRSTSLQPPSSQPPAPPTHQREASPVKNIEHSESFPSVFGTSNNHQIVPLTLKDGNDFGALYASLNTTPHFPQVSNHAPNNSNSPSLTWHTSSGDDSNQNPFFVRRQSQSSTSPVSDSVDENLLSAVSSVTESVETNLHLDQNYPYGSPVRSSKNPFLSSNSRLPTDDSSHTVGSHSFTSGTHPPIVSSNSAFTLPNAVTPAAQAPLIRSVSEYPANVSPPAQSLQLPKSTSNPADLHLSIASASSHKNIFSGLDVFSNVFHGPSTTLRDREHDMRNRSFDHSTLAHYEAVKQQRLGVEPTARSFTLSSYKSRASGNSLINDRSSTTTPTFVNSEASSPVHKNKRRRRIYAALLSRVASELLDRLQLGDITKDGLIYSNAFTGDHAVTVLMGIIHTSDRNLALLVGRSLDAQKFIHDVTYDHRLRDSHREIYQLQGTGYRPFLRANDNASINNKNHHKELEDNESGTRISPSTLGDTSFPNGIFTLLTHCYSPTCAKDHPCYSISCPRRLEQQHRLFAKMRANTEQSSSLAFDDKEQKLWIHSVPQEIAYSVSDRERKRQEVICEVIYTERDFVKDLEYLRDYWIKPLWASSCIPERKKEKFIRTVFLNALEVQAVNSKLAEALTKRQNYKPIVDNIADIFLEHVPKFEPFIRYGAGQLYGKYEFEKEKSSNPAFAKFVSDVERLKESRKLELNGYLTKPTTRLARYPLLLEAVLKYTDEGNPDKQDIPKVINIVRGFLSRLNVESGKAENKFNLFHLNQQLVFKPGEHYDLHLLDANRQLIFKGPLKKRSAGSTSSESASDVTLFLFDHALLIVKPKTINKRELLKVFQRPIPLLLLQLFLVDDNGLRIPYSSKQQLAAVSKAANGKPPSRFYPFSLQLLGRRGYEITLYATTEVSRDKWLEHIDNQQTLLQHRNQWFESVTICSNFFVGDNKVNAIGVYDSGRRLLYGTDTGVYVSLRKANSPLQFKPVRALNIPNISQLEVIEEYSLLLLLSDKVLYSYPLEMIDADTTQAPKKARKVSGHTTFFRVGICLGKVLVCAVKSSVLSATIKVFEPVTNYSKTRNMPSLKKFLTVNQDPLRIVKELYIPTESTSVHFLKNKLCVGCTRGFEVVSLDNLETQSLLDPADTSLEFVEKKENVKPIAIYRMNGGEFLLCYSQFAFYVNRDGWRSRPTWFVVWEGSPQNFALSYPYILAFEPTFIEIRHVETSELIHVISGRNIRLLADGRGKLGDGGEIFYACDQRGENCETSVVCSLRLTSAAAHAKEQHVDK
The experiment in a line: two-hybrid; S. cerevisiae AH109; pGBKT7 (GAL4 binding domain) and pGADT7 (GAL4 activation domain) fusions; growth on YNB plates without histidine.

These are yes or no findings as the source states them, for the method shown. For some assays here: In cells and extracts the contact can be indirect. Some entries that bind do so weakly or less than the wild type. For some assays here: Sequences can lack the tags named with a protein.

B1: GFP-tagged Tea4 (protein, UniProt O60132 1-821)
chain: MLHMNSASSADSMEIMESHFDPTQQNDSTIIESRYSPEEYLEQSFEIQRIISGENSEPQTVASQEISDSQEEDTTLTSSQFEDCGTEYNEVVEDDEFRSEDEDDFMDEEEEYALYEAELSSSPSIHEEVIDCNFVHAIRGFEATVEGQVDATKGDMMILLDDSNSYWWLVKMCKNLAIGYLPAEYIETPSERLARLNKYKNSETSNSQQSVTLPPLDIVEKTLEAPSPNFRIKRVTFTCSSNSSDDEMDSENDYEAMVNRTVAENGLEIEFSDSSDSSLSAEYRSESEDHVTDSPAYVDLTELEGGFNQFNSTSFQSTSPLGLEIVETEINGSSTTADSKNSHSPYSKFSSAYPDAENSNISKINISIAGNKELYGNATQSDPSLYSTWIANKHKTASSATVDSPLRRSLSVDAMQSNASFSSYSSTSNTDKSLRPSSYSAVSESSNFTHDVSRDNKEISLNAPKSIIVSQSDSFDTSNVTQDAPNDVEKEPISGQMPNNLSVQSLKQLEVYPIRHSVSIEMPSEKLLSPRLYSSSTPSSPTKGFQKDDEEDSENRKQADKVELSPSSLLRQMSLPVDSSSQSDAQCTTSSVYITAERKAFSQSSIDLSTLSNHHVNNEINRRSFAGGFTSLADELSEMRELLHESPAPLECNEEMVIPTPELDASSAIPSSSISHDEDLLPRKNTEESTSSSSFSSLITSPASLQYDENPFKQSVVAELNNNSSSVPFVDSAHASDIHAYDNDHVSTKNKEFNRRLREFILDPDSLSGLYWSVKSAGVRASRRVSRNIEGESVSSDLDDIFANVLKGLSDEMASLLNTNR
For B1, in the assay with GST-Rgf1 (S. pombe), the binding result was “binds”.

B2: pGAD-tea1 (protein, UniProt P87061 1-1147)
chain: MSFLFKRNKGSAHKPTKPNFSKTSTTPSTSQLKHSHESNVKMSTSTVTEHRKKPTGSGSHITASPWSKLTVRGSSNVLPRYSHASHLYAEGGQEIYIFGGVASDSQPKNDLWVLNLATSQFTSLRSLGETPSPRLGHASILIGNAFIVFGGLTNHDVADRQDNSLYLLNTSSLVWQKANASGARPSGRYGHTISCLGSKICLFGGRLLDYYFNDLVCFDLNNLNTSDSRWELASVVNDPPPARAGHVAFTFSDKLYIFGGTDGANFFNDLWCYHPKQSAWSKVETFGVAPNPRAGHAASVVEGILYVFGGRASDGTFLNDLYAFRLSSKHWYKLSDLPFTPSPRSSHTLSCSGLTLVLIGGKQGKGASDSNVYMLDTSRFRLGSVPTTSGRQRNTSFFSNSTGNTNPSAFNGLLTSSRIPSYNGSKVRSTSHPSRQQYIGSSNSRFNTRHQTISTPVSGRASNDLPSPVVPTRSNSSSILQPSYNLNSHSSDRRNTNDDDQSSLNSQQLSNQAKAQGEVSPTLSFVPSSHSMEQGNGSVASANNAQSEAATRSINSISEVSEVRFPEQSSVKTVDERKSLDGRITSVTLETLVEKYSELSKQQIVEWFKSKLYEILRDSASKIDSLTEKLKVANAEKNAALCEAALEKVPLAKHNKLSDGTFSTPDKENVQSTNDAHIMQENFSLHKALEVMRETSSDLDKQLKDATASQKELIVQTSSFQKELVEERERHNAISKRLQEIESLYRDRELLVTNLEDQLVDQTVTINKFAFERDQFRERSMGFENTIKDLTRKMEATDMLNVSLHESLRSVQTENSELVTEMALLKAELVKKQAIIDANANIYDKLTADHTNYETVSADINQNLKETLDKLLNGSSDFKNNEIELLHDQIRITNAKLEKREKLINASKYIEDTLRSEIQEAAEKVSNLEFSNFNLKEENSNMQLQLMKALEQRNTGAKQLVNLRMQLSTATSELDMLKLKLRTTALALEESPDDYSDILSILRADMSPFHDLHKQCGVLIDTLNGVKRGFGIFEKKFTDYHKFLENISDKLKSEEDTSLETPIHENQSIQSDQIKEVGEVLSAIKSLSDSVMLLKNQIDDLAKEKLPLSSSDDEKVNIKEKTDFMKLLVKSGLSNPPAKEPVHDNEN
Turning to B2, the binding entry with pGBK-rgf1 (S. pombe) was “no binding”.
